Out of some 110,000 compounds screened, about 230 (0.21%) showed an effect of 50% or more. The list shows a part of the results.
Each molecule was assayed against DPAP1 (Plasmodium falciparum, UniProt Q8IIJ9) (assay: primary screen, percent inhibition; read by cleavage of a fluorogenic dipeptide substrate; higher = more effect of the substance).
Parameters: species or system P. falciparum D10 trophozoite lysates; single well
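Note: 30 min substrate incubation versus DMSO and 10 µM JCP410 controls.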

Sequence of DPAP1 (Q8IIJ9 whole entry, looked up): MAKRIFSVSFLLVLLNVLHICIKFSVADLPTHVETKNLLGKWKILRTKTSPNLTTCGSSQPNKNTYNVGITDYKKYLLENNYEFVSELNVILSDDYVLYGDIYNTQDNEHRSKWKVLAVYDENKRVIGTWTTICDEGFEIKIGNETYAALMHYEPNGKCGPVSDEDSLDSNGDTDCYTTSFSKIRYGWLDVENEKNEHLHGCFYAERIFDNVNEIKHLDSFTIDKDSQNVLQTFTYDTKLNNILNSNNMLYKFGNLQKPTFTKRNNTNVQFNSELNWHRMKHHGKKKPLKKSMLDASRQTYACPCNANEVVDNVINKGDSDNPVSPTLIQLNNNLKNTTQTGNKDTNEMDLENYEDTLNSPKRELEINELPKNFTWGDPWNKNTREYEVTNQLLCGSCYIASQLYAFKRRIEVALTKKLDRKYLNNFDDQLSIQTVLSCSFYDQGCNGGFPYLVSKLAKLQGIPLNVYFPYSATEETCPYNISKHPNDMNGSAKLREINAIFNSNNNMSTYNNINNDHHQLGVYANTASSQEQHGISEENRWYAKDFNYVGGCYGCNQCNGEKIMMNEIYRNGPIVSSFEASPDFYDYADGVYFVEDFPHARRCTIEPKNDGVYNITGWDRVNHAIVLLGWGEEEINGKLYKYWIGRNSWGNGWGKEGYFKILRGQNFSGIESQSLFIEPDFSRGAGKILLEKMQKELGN

Compared with O=C(Cc1ccccc1)Nc1ccc(-c2nc3ncccc3o2)cc1, Nc1c(-c2nc(-c3ccc4c(c3)OCO4)cs2)c2ccccn2c1C(=O)c1ccc(F)cc1 is lower in “% Inhibition @ 10 uM” value: 4.84% for the first, -0.671% for the second.

Going from O=C1CC(c2cccc(Cl)c2)Sc2ccccc2N1 (stereo not drawn) to CC1=Cc2ccccc2C(C#N)N1C(=O)c1ccccc1 (stereo not drawn), the “% Inhibition @ 10 uM” value rises from -1.02% to 9.01%.

First: Cc1cccc(-c2nc3c4ccccc4nc(NCCCOC(C)C)n3n2)c1
Second: Cn1cc(CCCC(=O)NCc2ccccc2Br)c2ccccc21
The “% Inhibition @ 10 uM” value of the first is lower: -4.21% for the first, 2.07% for the second.

First: CC(=O)Nc1ccc(CN2CC(C)OC(C)C2)cc1 (stereo not drawn)
Second: CC1=C(C(=O)Nc2ccc(Cl)cc2)C(c2ccc(Cl)cc2)NC(=O)N1 (stereo not drawn)
The “% Inhibition @ 10 uM” value of the first is higher: -1.41% for the first, -1.66% for the second.

Going from O=C(c1cc(-c2ccc(O)cc2)on1)N1CCCCCC1 to COc1cccc(-c2cc(C(=O)N3CCC(N4CCCCC4)CC3)[nH]n2)c1, the “% Inhibition @ 10 uM” value rises from -4.07% to 0.536%.

First: Cc1nn(-c2ccc(F)cc2)c(O)c1/C=N/c1ccc(O)cc1
Second: Cc1ccc(-n2nnc(-c3nc(-c4ccncc4)no3)c2N)cc1
The “% Inhibition @ 10 uM” value of the first is lower: -2.56% for the first, -0.485% for the second.

Going from Cc1cc(C)c(S(=O)(=O)NCC(=O)NCCO)c(C)c1 to CCCNC(=O)c1cccc(Cn2nc(C)c(Br)c2C)c1, the “% Inhibition @ 10 uM” value falls from 0.931% to -0.598%.

First: Brc1ccc(OCCCN2CCCC2)cc1
Second: Clc1ccc(OCCCCN2CCCC2)cc1
The “% Inhibition @ 10 uM” value of the first is higher: -4.3% for the first, -8.01% for the second.

Going from COc1cc2c(cc1OC)C(COc1ccccc1OC)N(C(=O)Cc1cccs1)CC2 (stereo not drawn) to CN(CC(=O)NC1CCCc2ccccc21)S(=O)(=O)c1cccs1 (stereo not drawn), the “% Inhibition @ 10 uM” value rises from 0.739% to 3.5%.

Going from O=C(Nc1cccc(C(F)(F)F)c1)c1ccc(Cl)cc1 to O=C(Nc1ccccc1NC(=O)N1CCCCC1)c1ccc(C(F)(F)F)cc1, the “% Inhibition @ 10 uM” value rises from -5.57% to -0.992%.

First: CC(C(=O)NCCN1CCCCCC1)n1ncn2cccc2c1=O (stereo not drawn)
Second: CCC(C)(C)NC(=O)c1cc(S(=O)(=O)N2CCCCC2)c[nH]1
The “% Inhibition @ 10 uM” value of the first is lower: -0.385% for the first, 4.92% for the second.

Going from O=C(CSc1nc2ccccc2[nH]1)NCCCn1ccnc1 to Nn1c(SCC(=O)Nc2nccs2)nnc1-c1ccncc1, the “% Inhibition @ 10 uM” value falls from 2.99% to -6.28%.

Going from CCCCN(C)C(=O)c1cn(C2CCCC2)c(=O)c2c1c1ccccc1n2C to CCCN(CCC)C(=O)Cn1ncc2c(C)n(Cc3ccccc3)c(C)c2c1=O, the “% Inhibition @ 10 uM” value rises from -7.21% to -2.17%.

Compared with CCCCSc1nnc2c(=O)[nH]c(=O)[nH]c2n1, COCc1c(Br)c(C)nc2sc3c(=O)n(CCc4ccccc4)nnc3c12 is higher in “% Inhibition @ 10 uM” value: -2.92% for the first, 4.13% for the second.

First: COc1ccc(NS(=O)(=O)c2ccc(NC(=O)c3nn(C)c(C)c3Br)cc2)cc1
Second: COc1ccc(C(=O)CSc2nc(C)cc(C)c2C#N)cc1
The “% Inhibition @ 10 uM” value of the first is higher: 3.69% for the first, -1.37% for the second.

Going from CCCCCCN(CCCCCC)c1nc2ccccc2nc1NS(=O)(=O)c1ccccc1 to O=C(NCCN1CCN(S(=O)(=O)c2ccc(F)cc2)CC1)C(=O)NCc1ccccc1, the “% Inhibition @ 10 uM” value falls from 7.66% to -2.32%.

Going from O=C(Nc1nc(-c2ccc(Cl)cc2Cl)cs1)c1ccco1 to Cc1cccc(CN2CCC(CNC(=O)c3cc4ccc5cccnc5c4[nH]3)CC2)c1, the “% Inhibition @ 10 uM” value falls from 5.29% to 1.06%.

Compared with C/C(=N\CCCNC1CCCCC1)C1=C(O)CC(C)(C)CC1=O, C/C(=N\C(C)C)C1=C(O)CC(c2ccccc2)CC1=O (stereo not drawn) is lower in “% Inhibition @ 10 uM” value: -2.07% for the first, -5.34% for the second.

Compared with COc1cccc(CN(C)CCN(C)C)c1, Cc1sc(CN(C)C)cc1-c1ccccc1 is lower in “% Inhibition @ 10 uM” value: 5.43% for the first, 2.7% for the second.

Compared with CSCC[C@@H](NC(=O)OCc1ccccc1)C(=O)NCC#N, CC(C)C[C@H](NC(=O)c1sccc1Br)C(=O)NCC#N is lower in “% Inhibition @ 10 uM” value: 0.079% for the first, -1.41% for the second.

Going from N#CC1=C(N)Oc2cc(N)ccc2C1c1ccc(Br)s1 (stereo not drawn) to O=C1C2C3C=CC(C3)C2C(=O)N1c1ccc(Br)cc1F (stereo not drawn), the “% Inhibition @ 10 uM” value falls from 1.41% to -3.18%.

Compared with O=C(O)c1cccc2c1NC(c1ccc(F)cc1)C1CC=CC21 (stereo not drawn), O=C(O)c1cc(N2C(=O)C3C4C=CC(CC4)C3C2=O)ccc1Cl (stereo not drawn) is higher in “% Inhibition @ 10 uM” value: -5.23% for the first, 2.15% for the second.

Going from CC(=O)c1c(C(C)=O)c(C)n(Cc2ccco2)c1C to CCOc1nc(C)cc(COC)c1C(N)=O, the “% Inhibition @ 10 uM” value falls from -0.173% to -4.56%.

Going from CC1(O)N(c2ccc(Cl)cc2)C(=O)OC12CCCCC2 (stereo not drawn) to Nc1c(C(=O)Nc2ccc(C(=O)O)cc2)sc2nc3c(cc12)CCCCC3, the “% Inhibition @ 10 uM” value rises from -3.26% to 4.88%.

First: CCOC(=O)N1CCC(N(C)CCc2ccccc2)CC1
Second: Cc1ccc(C(=O)N/C(=C/c2ccccc2F)C(=O)N2CCNCC2)cc1
The “% Inhibition @ 10 uM” value of the first is higher: 3.18% for the first, -6.7% for the second.

In the case of CC1CCN(C(=O)c2cc(S(=O)(=O)N3CCCCC3)c[nH]2)CC1, the “% Inhibition @ 10 uM” value is reported as 2.24%.

Reference: publication PMC6919601, “Identification of Plasmodium dipeptidyl aminopeptidase allosteric inhibitors by high throughput screening” (PLoS ONE, 2019)
